The campaign covered roughly 45,000 compounds. About 65 (0.1%) were called active. The call rests on the fitted dose curve; in most records, active means well fitted activation curve with a large enough effect; inconclusive means small, poorly fitted or top-dose-only effect; inactive means no such curve, though single readings can be large or run the other way. The list shows a part of the results.
molecular target: Galactocerebrosidase (Homo sapiens) (UniProt P54803); experiment: A Novel Cell-Based Assay to Identify Small Molecules for B -Galactocerebrosidase; settings: 145M-Twi-hGALC-G270D cells (Twitcher mouse brain line with human GALC G270D), HMU-beta-Gal fluorescence, 48 h; series mostly up to 57.5 µM; activation: at the top concentration; further: 0% is about no effect; nearly all actives have a fitted effect of over 65% in size
Chain of UniProt P54803 (P54803 whole entry, looked up): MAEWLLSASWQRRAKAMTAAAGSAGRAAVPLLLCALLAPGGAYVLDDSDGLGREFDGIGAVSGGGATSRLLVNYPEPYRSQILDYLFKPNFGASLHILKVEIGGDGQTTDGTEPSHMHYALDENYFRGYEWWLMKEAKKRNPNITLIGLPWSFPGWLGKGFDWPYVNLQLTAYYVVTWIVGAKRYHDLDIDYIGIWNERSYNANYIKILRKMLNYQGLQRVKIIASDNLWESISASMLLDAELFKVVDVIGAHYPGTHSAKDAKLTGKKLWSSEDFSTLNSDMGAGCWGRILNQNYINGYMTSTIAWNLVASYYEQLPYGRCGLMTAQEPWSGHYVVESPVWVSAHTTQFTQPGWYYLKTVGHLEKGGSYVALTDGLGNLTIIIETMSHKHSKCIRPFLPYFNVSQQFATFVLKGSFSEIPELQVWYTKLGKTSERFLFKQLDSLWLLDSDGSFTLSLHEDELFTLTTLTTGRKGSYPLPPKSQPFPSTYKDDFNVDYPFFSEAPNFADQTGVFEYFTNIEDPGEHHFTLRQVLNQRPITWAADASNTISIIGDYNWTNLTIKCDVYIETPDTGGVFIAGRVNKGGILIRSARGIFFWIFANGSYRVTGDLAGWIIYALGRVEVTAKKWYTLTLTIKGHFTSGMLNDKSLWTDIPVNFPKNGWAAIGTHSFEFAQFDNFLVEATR
Summary of the method: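 Fluorescence readout: HMU-β-gal cleavage by mutant GALC (0.1 mM final, citrate/phosphate pH 5.2 with 1 mg/mL taurocholate), stopped with carbonate/bicarbonate plus Triton X-100. Cells: murine Twitcher 145M-Twi expressing human G270D GALC; qHTS for activators.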

activation, inactive:
COc1cc(-c2cc(OC)c3c(C)oc(C)c3c(=O)c2)ccc1OC(=O)c1ccc(C)cc1 -12.8%
CCOc1ccc(NC(=O)CSC2=Nc3ccccc3C3=NC(CC(=O)NCc4cccs4)C(=O)N23)cc1 (stereo unspecified) -18.5%
CC(=O)c1cccc(NC(=O)C2CCN(c3ncnc4c3nc3n4CCCCC3)CC2)c1 5.5%
O=C(O)c1ccccc1OP(=O)(O)O -12.9%
O=C1c2ccccc2-c2onc3c(N4CCN(C5CCCCC5)CC4)cc(NCCO)c1c23 -13.6%
Cc1ccc(-c2cn3c(n2)sc2cc(C(=O)NCCCN4CCCCCC4)ccc23)cc1 -9.84%
CC(CCc1ccccc1)NC(=O)Cn1c(=O)nc(-c2ccccc2)c2cc(Cl)ccc21 (stereo unspecified) -10.5%
CCc1ccc2oc(C(=O)N(Cc3ccc(N(C)C)cc3)Cc3ccco3)c(C)c2c1 -20.9%
CC1=C(c2ccc(C)c(C)c2)S(=O)(=O)N=C1N1CCC(C(=O)NC(C)c2ccccc2)CC1 (stereo unspecified) -1.01%
Cc1nc2ccccn2c(=O)c1NC(=O)c1cccc(F)c1 -1.07%
COc1ccc(NC(=O)/C=C\C(=O)N(c2ccc(C(C)C)cc2)C(C(=O)NCc2ccco2)c2ccc(C)cc2)cc1 (stereo unspecified) -20.3%
COc1cccc(Nc2nc3cc(C)ccc3nc2NS(=O)(=O)c2ccc(Cl)cc2)c1 -16.5%
COC(=O)c1ccccc1NC(=O)Cn1cnc2sc(C)c(S(=O)(=O)N3CCC(C)CC3)c2c1=O -23.6%
CCOC(=O)c1cccc(NC(=O)c2ncoc2-c2ccco2)c1 -0.0082%
Cc1cc(OCC(=O)NCCc2nc3ccccc3[nH]2)cc(C)c1Cl -3.43%
Cc1ccc(CNC(=O)Cn2c(SCC(=O)Nc3ccc(F)cc3)nc3ccccc32)cc1 -13.5%
COc1cccc(C(=O)NCCc2csc3nc(-c4ccccc4F)nn23)c1OC -11.3%
Cc1ccccc1N(C)S(=O)(=O)c1nnc(NC(=O)c2ccco2)s1 -11.2%
CCOC(=O)c1cc(-c2ccc(OC)cc2)n(CCC(=O)NCCc2ccccc2)c1C -6.56%
COc1ccc(CCNC(=O)c2ccc3c(c2)sc2nc(-c4ccccc4)cn23)cc1OC -17.8%
Cc1ccc(NC(=O)C2(C)Cc3ccccc3C(=O)O2)c(C)c1 (stereo unspecified) -7.92%
Cc1ccc(S(=O)(=O)C(CNC(=O)c2c(F)cccc2F)c2ccco2)cc1 (stereo unspecified) 1.63%
Cc1ccc(CNC(=O)C(C)n2c(=O)cc(C(F)(F)F)c3c(C)nn(C)c32)cc1 (stereo unspecified) -37.1%
Cc1cccc(C(=O)N2CCc3cc(CNC(=O)c4cc5ccccc5[nH]4)ccc32)c1 -21%
CCn1nc(C)c(CCN(C)C(=O)Nc2cccc(Cl)c2C)c1C -1.61%
O=S(=O)(c1ccccc1)c1nc(-c2ccccc2Cl)oc1N1CCCCCC1 -7.32%

Reference: PubChem BioAssay AID1159614 (National Center for Advancing Translational Sciences (NCATS), 2016)
